In test [1] the test system is HSkMC (human skeletal muscle cells). Put plainly: cytotoxicity call (relative viability < 0.9). Conditions: 10 µM.
Test [2] concerns HepG2. Put plainly: cytotoxicity call (relative viability < 0.9). Conditions: 10 µM.
For test [3], the system named is S. aureus RN4220. The test is described as follows: growth inhibition call (relative growth <= 0.2). Conditions: 50 µM.

Structures are written as SMILES. Some of the results follow.

On to `CO[C@@H]1CN(C)C(=O)c2ccc(NC(=O)c3nc4ccccc4s3)cc2OC[C@@H](C)N(Cc2ccccc2)C[C@H]1C`, for which the cytotoxicity call in test [1] and in test [2] was “inactive” each time. Also, the growth inhibition call in test [3] is “inactive”.
For the compound `C[C@H](CO)N1C[C@H](C)[C@H](CN(C)Cc2ccc(Oc3ccccc3)cc2)Oc2ccc(NS(=O)(=O)c3ccc(Cl)cc3)cc2CC1=O`, the cytotoxicity call in test [1] and in test [2] was “active” throughout. In addition, in test [3], the growth inhibition call is “inactive”.
As for `C[C@@H]1CCCCO[C@@H](CN(C)C(=O)c2ccncc2)[C@H](C)CN([C@@H](C)CO)C(=O)c2cc(NC(=O)C3CCCCC3)ccc2O1`, the cytotoxicity call in test [1] and in test [2] was “inactive” each time. In addition, in test [3], the growth inhibition call is “inactive”.
Take `CN1CCN(C(=O)C[C@@H]2CC[C@H]3[C@@H](COC[C@@H](O)CN3Cc3ccc(Oc4ccccc4)cc3)O2)CC1`: the cytotoxicity call in test [1] and in test [2] was “inactive” in each case. Moreover, the growth inhibition call in test [3] is “inactive”.
For `CO[C@H]1O[C@H](CO)C(=O)C(=O)[C@@H]1N`, the cytotoxicity call in test [1] and in test [2] was “inactive” each time. The growth inhibition call in test [3] is “inactive”.
Regarding `CO[C@@H]1CN(C)C(=O)c2ccc(NS(=O)(=O)c3cccc(C)c3)cc2OC[C@@H](C)N(Cc2cc(F)ccc2F)C[C@H]1C`, the cytotoxicity call in test [1] and in test [2] was “inactive” throughout. Further, the growth inhibition call in test [3] was “inactive”.
With `C[C@H](CO)N1C[C@H](C)[C@H](CN(C)C(=O)Nc2cccc(Oc3ccccn3)c2)OCc2cn(nn2)CCCC1=O`, the cytotoxicity call in test [1] and in test [2] was “inactive” in each case. Also, in test [3], the growth inhibition call is “inactive”.
With `C[C@@H]1CCCCO[C@@H](CN(C)S(=O)(=O)c2ccc(F)cc2)[C@@H](C)CN([C@H](C)CO)C(=O)c2cc(NC(=O)NC3CCCCC3)ccc2O1`, the cytotoxicity call in test [1] and in test [2] was “inactive” each time. Also, the growth inhibition call in test [3] is “inactive”.
Regarding `CCc1nc2ccc(C(=O)Nc3cccc(NS(C)(=O)=O)c3)cn2c1N(C)CCN1CCOCC1`, the cytotoxicity call in test [1] and in test [2] was “inactive” each time. Moreover, the growth inhibition call in test [3] was “inactive”.
As to `Cc1ccc(C(=O)N(CCCN)[C@@H](c2nc3cc(Cl)ccc3c(=O)n2Cc2ccccc2)C(C)C)cc1`, the cytotoxicity call in test [1] and in test [2] was “active” in each case. Further, in test [3], the growth inhibition call was “active”.
In the case of `C[C@@H]1CN([C@H](C)CO)C(=O)c2cc(NC(=O)CCC(F)(F)F)ccc2O[C@@H]1CN(C)Cc1ccc(Cl)c(Cl)c1`, the cytotoxicity call in test [1] and in test [2] was “inactive” throughout. The growth inhibition call in test [3] was “inactive”.
For `COc1ccc(S(=O)(=O)Nc2ccc3c(c2)C(=O)N([C@H](C)CO)C[C@H](C)[C@H](CN(C)Cc2ccc(C(F)(F)F)cc2)OCCCC[C@@H](C)O3)cc1`, the cytotoxicity call in test [1] was “inactive”. Besides, the cytotoxicity call in test [2] was “active”. The growth inhibition call in test [3] is “inactive”.
Take `C[C@H](CO)N1C[C@H](C)[C@@H](CN(C)C(=O)c2ccccc2)OCCCC[C@H](C)Oc2ccc(NS(=O)(=O)c3ccc(Cl)cc3)cc2C1=O`: the cytotoxicity call in test [1] and in test [2] was “inactive” in each case. For the same compound, the growth inhibition call in test [3] was “inactive”.
`Cn1cnc(S(=O)(=O)N[C@H]2C=C[C@H](CC(=O)NCC3CC3)O[C@H]2CO)c1`: the cytotoxicity call in test [1] and in test [2] was “inactive” each time. Also, the growth inhibition call in test [3] was “inactive”.
`CCCCCCCCCCCCCCCC[N+](C)(C)CCN(Cc1ccc(OC)cc1)c1ncccn1`: the cytotoxicity call in test [1] and in test [2] was “active” throughout. Moreover, the growth inhibition call in test [3] was “inactive”.
In the case of `O=c1cc(-c2ccc(O)cc2)oc2ccc(O)cc12`, the cytotoxicity call in test [1] and in test [2] was “inactive” each time. Besides, the growth inhibition call in test [3] is “inactive”.
With `C[C@@H]1CCCCO[C@@H](CN(C)S(=O)(=O)c2ccc(Cl)cc2)[C@@H](C)CN([C@H](C)CO)C(=O)c2cc(NC(=O)NC3CCCCC3)ccc2O1`, the cytotoxicity call in test [1] and in test [2] was “inactive” in each case. Further, in test [3], the growth inhibition call is “inactive”.
On to `COc1ccc(NC(=O)Nc2ccc3c(c2)C(=O)N([C@H](C)CO)C[C@@H](C)[C@@H](CN(C)Cc2ccc(C(=O)O)cc2)OCCCC[C@H](C)O3)cc1`, for which the cytotoxicity call in test [1] and in test [2] was “inactive” each time. Moreover, in test [3], the growth inhibition call is “inactive”.
Take `Cc1ccc(S(=O)(=O)N(C)C[C@H]2Oc3ncc(-c4ccncc4)cc3C(=O)N([C@H](C)CO)C[C@@H]2C)cc1`: the cytotoxicity call in test [1] and in test [2] was “inactive” throughout. Moreover, the growth inhibition call in test [3] is “inactive”.
Regarding `O=c1cc(-c2ccccc2)oc2ccccc12`, the cytotoxicity call in test [1] and in test [2] was “inactive” each time. The growth inhibition call in test [3] is “inactive”.
As to `CCS(=O)(=O)N[C@@H]1C=C[C@H](CC(=O)NCc2ccccn2)O[C@@H]1CO`, the cytotoxicity call in test [1] and in test [2] was “inactive” throughout. In test [3], the growth inhibition call was “inactive”.
As for `CC[C@@]1(O)C[C@H](O[C@H]2C[C@H](N(C)C)[C@H](O[C@H]3C[C@H](O)[C@H](O[C@H]4CCC(=O)[C@H](C)O4)[C@H](C)O3)[C@H](C)O2)c2c(cc3c(c2O)C(=O)c2c(O)cccc2C3=O)[C@H]1C(=O)OC`, the cytotoxicity call in test [1] and in test [2] was “active” each time. For the same compound, the growth inhibition call in test [3] is “inactive”.
Consider `C[C@@H]1CN([C@@H](C)CO)C(=O)c2cc(NS(=O)(=O)c3ccc(F)cc3)ccc2O[C@H]1CN(C)CC1CC1`, for which the cytotoxicity call in test [1] and in test [2] was “inactive” in each case. In test [3], the growth inhibition call is “inactive”.
With `NC(=O)C[C@H]1Sc2ccccc2NC1=O`, the cytotoxicity call in test [1] and in test [2] was “inactive” throughout. Further, the growth inhibition call in test [3] is “inactive”.
Regarding `C[C@@H]1CN([C@H](C)CO)C(=O)c2cc(NS(=O)(=O)c3ccc(Cl)cc3)ccc2O[C@@H](C)CCCCO[C@@H]1CN(C)Cc1ccc(Cl)c(Cl)c1`, the cytotoxicity call in test [1] is “inactive”. Also, the cytotoxicity call in test [2] was “active”. Moreover, the growth inhibition call in test [3] was “inactive”.
For `CCC1C=C2C(=O)OC(=O)C2CC2=C(C(=O)OC2=O)C(OC(C)=O)C1CC` (configuration not stated), the cytotoxicity call in test [1] and in test [2] was “inactive” each time. In test [3], the growth inhibition call was “inactive”.
As to `CC[C@H](C#CCN1CCOCC1)OC(C)=O`, the cytotoxicity call in test [1] and in test [2] was “inactive” in each case. Moreover, the growth inhibition call in test [3] is “inactive”.
As to `O=C(C[C@H]1CC[C@@H]2[C@H](COC[C@H](O)CN2S(=O)(=O)c2ccccc2)O1)NCCN1CCCCC1`, the cytotoxicity call in test [1] and in test [2] was “inactive” each time. Moreover, in test [3], the growth inhibition call was “inactive”.
For `COc1ccccc1C(=O)Nc1ccc2c(c1)C(=O)N(C)[C@H]1CC[C@@H](CC(=O)NCc3ccc(Cl)c(Cl)c3)O[C@@H]1CO2`, the cytotoxicity call in test [1] and in test [2] was “active” each time. In test [3], the growth inhibition call is “inactive”.
